According to PubChem BioAssay AID924 (National Center for Advancing Translational Sciences (NCATS), 2007):
Where “and” joins values, the source holds several entries; their conditions need not be identical. Equal values may be shown once. Screen size: about 130,000 compounds; about 1,200 (0.92%) were called active. Inconclusive results, whose numbers are uncertain, are shown with a selection of clear calls. The call rests on the fitted dose curve; in most records, active means well fitted cell-killing curve with a large enough effect; inconclusive means small, poorly fitted or top-dose-only effect; inactive means no such curve, though single readings can be large or run the other way. A potency beside an inconclusive call is a rough fit, not a confirmed value.

Assay: qHTS Screen for Compounds that Selectively Target Cancer Cells with p53 Mutations: Cytotoxicity of p53ts Cells at the Permissive Temperature; further: nearly all actives have a fitted effect of over 55% in size;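 on activity change, negative = cytotoxicity: 0% = DMSO and -100% = full killing by reference compound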
Details: H1299-p53A138V at 32C, ATP luminescence viability, 24 h; series mostly up to 46.1 µM
In short: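 H1299-p53 A138V cells (temperature-sensitive p53) exposed 24 h to up to 46 uM compound at 32C, where p53 is wild-type in conformation. Viability read as ATP luminescence and normalised to DMSO and 100 uM tamoxifen. AC50 fitted with the Hill equation.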
Potency means the concentration at half of the fitted maximal effect; tags describe the fitted curve by direction and shape.

Row | Compound | Potency | activity change, negative = cytotoxicity
1 | Cc1ccccc1C(=O)Nc1ccc(C(=O)OCc2cc(=O)n3nc(C4CC4)sc3n2)cc1 | inconclusive: 3.16 µM [cytotoxic, full curve, poor fit] | 
2 | Cc1cc(Cl)ccc1OCC(=O)N1CCN(C)CC1 | inactive | 
3 | O=C(O)C(Cl)(Cl)Cl | inconclusive: 0.0063 µM [cytotoxic, full curve, poor fit] | 
4 | C[C@@H]1OC(OC2C(OC3CC[C@@]4(C)C5CC=C6C7CC(C)(C)CC[C@@]7(C(=O)O)CCC6(C)C5(C)CCC4[C@]3(C)CO)OCC(O)C2O)C(O)C(O)C1O (stereo partly specified) | inconclusive: 31.6 µM [cytotoxic, single point] | 
5 | O=C(OCc1cc(=O)n2nc(C3CC3)sc2n1)c1ccc(NC(=O)c2ccccc2Cl)cc1 | inconclusive: 3.98 µM [cytotoxic, full curve] | 
6 | C[C@@H]1O[C@H](OC2[C@@H](O)[C@H](O)C(O)[C@H](O)[C@H]2O)[C@@H](N)C[C@@H]1N=C(N)C(=O)O (stereo partly specified) |  | inactive: -3.37% [at 9.22 µM]
7 | NC(=O)c1ccc(N=Nc2c(O)[nH]c(=O)[nH]c2=O)cc1 | inconclusive: 0.0708 µM [cytotoxic, full curve, poor fit] | 
8 | COc1cccc(-c2cc(C(=O)Nc3cnn(Cc4ccc(Cl)cc4Cl)c3)no2)c1 | inconclusive: 15.8 µM [cytotoxic, single point] | 
9 | Cn1c2ccccc2c2c(C(=O)N3CCC4(CC3)OCCO4)cn(C3CCCC3)c(=O)c21 | inactive | 
10 | CN1CCN(C(=O)COc2ccc(-c3nc4ccccc4s3)cc2)CC1 | active: 1 µM | 
11 | COc1ccc(CNC(=O)Cn2c(SCC(=O)Nc3ccc(C)c(C)c3)nc3ccccc32)cc1 | inconclusive: 12.6 µM [cytotoxic, partial curve] | 
12 | NCCc1ccc(O)cc1 | inactive | 
13 | CCOC(=O)c1ccc(N2C(=O)c3n[nH]c(-c4cccs4)c3C2c2ccc(Cl)cc2Cl)cc1 (stereo unspecified) | inconclusive: 31.6 µM [cytotoxic, single point] | 
14 | Cc1ccc(NC(=O)Cn2c(=O)oc3cc(S(=O)(=O)N4CCCCCC4)ccc32)cc1Cl | inconclusive: 0.005 µM [cytotoxic, full curve, poor fit] | 
15 | COc1cc(CC2C(=O)N(C)C(=O)N(C)C2=O)ccc1OCc1ccccc1 | inactive | 
16 | CC(C)(O)[C@H]1[C@H]2OC(=O)[C@@H]1[C@]1(O)C[C@H]3O[C@]34C(=O)O[C@H]2[C@]14C (tested in a mixture with another compound) | inactive | 
17 | COc1ccc2c(c[n+](C)c3c4cc5c(cc4ccc23)OCO5)c1OC | active: 5.01 µM | 
18 | c1ccc2c(c1)[I+]c1ccccc1-2 | inconclusive: 20 µM [cytotoxic, partial curve] | 
19 | CCCCN1C2CCC1CC(OC(c1ccc(F)cc1)c1ccc(F)cc1)C2 (stereo unspecified) | inconclusive: 20 µM [cytotoxic, partial curve] | 
20 | CC(C)(Cc1c[nH]c2ccc(Cl)cc12)NCCOc1ccccc1OCC1CC1 | inconclusive: 39.8 µM [cytotoxic, single point] | 
21 | c1ccc2c(CN3CCN(C4CCCCC4)CC3)c[nH]c2c1 | inconclusive: 15.8 µM [cytotoxic, single point] | 

Row | Compound | Potency | activity change, negative = cytotoxicity
22 | O=c1oc(Cl)c(Cl)c2ccccc12 | inconclusive: 12.6 µM [cytotoxic, single point] | 
23 | O=C1CCCN1CC#CCN1CCCC1 | inactive | 
24 | CCCCCCn1c(N)c(C(=O)NCCN2CCOCC2)c2nc3ccccc3nc21 | inconclusive: 31.6 µM [cytotoxic, single point] | 
25 | Cn1ncnc2c(=O)n(C)c(=O)nc1-2 | active: 0.794 µM | 
26 | Oc1ccc2c3c1O[C@H]1c4c(c5ccccc5n4Cc4ccccc4)C[C@]4(O)[C@H](C2)N(CC2CC2)CC[C@@]314 | inconclusive: 31.6 µM [cytotoxic, single point] | 
27 | CCOc1ccc(-c2cc(C(=O)N3CCC4(CC3)OCCO4)c3ccccc3n2)cc1 | inconclusive: 2.51 µM [cytotoxic, full curve] | 
28 | CC1=C(O)C(=O)C=C2C1=CC=C1[C@]2(C)CC[C@@]2(C)C3C[C@](C)(C(=O)O)CC[C@@]3(C)CC[C@@]12C (stereo partly specified) | inconclusive: 2.51 µM [cytotoxic, single point] | 
29 | COc1ccc(-c2cc(C(F)(F)F)n3nc(C(=O)N4CCC5(CC4)OCCO5)cc3n2)cc1OC | inactive | 
30 | O=C1OCCN1P(=O)(c1ccccc1)c1ccccc1 | inactive | 
31 | CC1=NN(c2ccccc2)C(=O)[C@@H]1N=Nc1ccc([As](=O)(O)O)c(O)c1 |  | inactive: 7.81% [at 9.22 µM]
32 | CN1CCN(c2ccc([N+](=O)[O-])c3[nH]o[n+](=O)c23)CC1 | inconclusive: 2.51 µM [cytotoxic, partial curve] | 
33 | C=C(C)CN1CC[C@@]23c4c5ccc(O)c4O[C@H]2c2[nH]c4ccccc4c2C[C@]3(O)[C@@H]1C5 | inconclusive: 31.6 µM [cytotoxic, single point] | 
34 | COC(=O)C[C@]1(C(=O)OC)CN(C#N)N(c2ccc(Cl)cc2)C12c1ccccc1-c1ccccc12 | active: 6.31 µM | 
35 | CCCOc1ccc(C(=O)Nc2ccc(-c3cc4ccccc4oc3=O)c(C)c2)cc1 | inconclusive: 15.8 µM [cytotoxic, partial curve] | 
36 | Fc1ccc(C(OCCN2CCN(CCCc3ccccc3)CC2)c2ccc(F)cc2)cc1 | inactive and inconclusive: 25.1 µM [cytotoxic, single point] | 
37 | CCC(=NCCO)c1c(O)n(C2CCCCC2)c(=O)[nH]c1=O | inactive | 
38 | Cc1ccc(O)c(C)c1 | inconclusive: 0.0501 µM [cytotoxic, full curve, poor fit] | 
39 | Cc1cccn2c(=O)cc(COc3cccc(NC(=O)COc4ccc(F)cc4)c3)nc12 | inconclusive: 31.6 µM [cytotoxic, single point] | 
40 | COc1ccc2nc(NC(=O)c3nc(S(=O)(=O)Cc4cccc(C)c4)ncc3Cl)sc2c1 | active: 20 µM | 
41 | CN(C)CCCNc1c2c(nc3ccc(Cl)cc13)CCCC2 |  | inactive: -15.3% [at 9.22 µM]
